In PubChem BioAssay AID686978 (National Center for Advancing Translational Sciences (NCATS), 2013):
“And” between values parts separate entries of the source, which are not always exact repeats. Equal entries are not always repeated. About 64,000 (15%) of roughly 420,000 compounds were called active. The shares of active, inactive and inconclusive entries below differ from those in the screen. Calls come from the whole dose curve; as a rule, active = well fitted inhibition curve with a large enough effect; inconclusive = small, poorly fitted or top-dose-only effect; inactive = flat fitted curve, though single readings scatter. Potencies of inconclusive entries are doubtful fits and often do not repeat.

Assay: qHTS for Inhibitors of human tyrosyl-DNA phosphodiesterase 1 (TDP1): qHTS in cells in absence of CPT; note: nearly all actives have a fitted effect of over 55% in size
Settings: DT40 Tdp1-/- hTDP1 cells, no CPT, ATP luminescence, 48 h; activity change, negative = growth inhibition: at 46.2 µM (top of the series) unless noted
How it was run: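 Growth of hTDP1-complemented DT40 Tdp1-knockout cells is measured by ATP luminescence after at least 48 hr compound exposure at 37 °C, with DMSO substituting for the 20 nM CPT used in the parallel screen.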
% is set by controls: 0 for no effect and ±100 for the full control effect; potency is the fitted concentration of half-maximal effect; tags give direction and shape of the fitted curve.

Structure (SMILES)	Potency	activity change, negative = growth inhibition
COC(=O)c1ccc(CSc2ncnc3ccccc23)o1	inconclusive: 16.4 µM [inhibitor, single point]	–
O=C(/C=C/c1ccc([N+](=O)[O-])cc1)NCc1cccs1	inconclusive: 18.4 µM [inhibitor, single point]	–
Cc1cc(C(C)(C)C)cc(C)c1C[n+]1ccc2ccccc2c1	active: 0.231 µM	–
CCOC(=O)c1ccc2ncc(C(=O)OCC)c(NCc3ccco3)c2c1	active: 23.1 µM	–
COCCN(C(=O)COC(=O)c1cccs1)c1c(N)n(Cc2ccccc2)c(=O)[nH]c1=O	–	inactive: 14.6%
Cc1cc2ccccc2n1CCNC(=O)c1cc(C(F)(F)F)cc(C(F)(F)F)c1	inconclusive: 14.6 µM [inhibitor, partial curve, poor fit]	–
COc1cc(C=O)ccc1OCC(=O)Nc1ccccc1N1CCOCC1	inconclusive: 29.1 µM [inhibitor, single point]	–
N#Cc1cccnc1N1CCN(C(=O)c2ccc3c(c2)S(=O)(=O)c2ccccc2C3=O)CC1	inconclusive: 18.4 µM [inhibitor, partial curve, poor fit]	–
CCn1c(SC(C)C)nnc1-c1c[nH]c2ccccc12	inconclusive: 29.1 µM [inhibitor, single point]	–
COc1ccc(C(=O)OCC(=O)Nc2nnc(-c3ccccc3)o2)cc1	–	inactive: -20.3%
COc1ccc2c(c1)c(C(=O)N/N=C/c1ccc(Br)cc1)c(C)n2C	active: 10.3 µM	–
CN(C)C(=O)c1ccc(-c2ccc3ncnc(NCc4ccccc4)c3c2)cc1	inconclusive: 23.1 µM [inhibitor, single point]	–
O=C(NC1CCCCCC1)c1ccc2nc3cc(Cl)ccc3c(=O)n2c1	inconclusive: 18.4 µM [inhibitor, partial curve, poor fit]	–
S=c1nc(-c2ccc(Cl)cc2)[nH][nH]1	–	inactive: -19.9%
CCCCNC(=O)COCc1cc(-c2ccc3c(c2)OCO3)on1	–	inconclusive: -35% [inhibitor]
COC(=O)CC/C(O)=C1\C(=O)CC(C)(C)CC1=Nc1ccccc1OC	inconclusive: 29.1 µM [inhibitor, single point]	–
CCCC(=O)Nc1ccc(N2CCN(C(=O)c3ccccc3C)CC2)cc1	inconclusive: 11.6 µM [inhibitor, partial curve, poor fit]	–
CC(C)c1ccc(NC(=O)CCNS(=O)(=O)c2cccc3nonc23)cc1	inconclusive: 29.1 µM [inhibitor, single point]	–
COc1ccc(N(CC(=O)NC2CCCC2)C(=O)Cn2nnc(-c3ccc(F)cc3)n2)cc1	–	inactive: -26.2%
Cc1ccc(S(=O)(=O)c2c(C(=O)c3ccccc3)cnc3cc4c(cc23)OCCO4)cc1	active: 20.6 µM	–
O=C(Nc1cccc(Cl)c1)N(CCN1CCOCC1)Cc1cccc(Cl)c1	inconclusive: 20.6 µM [inhibitor, single point]	–
Cc1[nH]c2ccccc2c1C(c1c[nH]c2ccccc12)c1c(C)[nH]c2ccccc12	active: 15.8 µM	–
Cc1ccc(C2=CC(c3cccs3)n3nnnc3N2)cc1 (stereo not given)	–	inactive: 0.732%

Structure (SMILES)	Potency	activity change, negative = growth inhibition
CCC(=O)[C@@]1(C)[C@H](C)C[C@H]2[C@@H]3CCC4=CC(=O)C=C[C@]4(C)[C@H]3[C@@H](O)C[C@@]21C	active: 16.4 µM	–
CCOc1ccc(N(CC)S(=O)(=O)N2CCCC(C(=O)Nc3cc(Cl)ccc3C)C2)cc1 (stereo not given)	active: 16.4 µM	–
Cc1ccc(Cl)cc1N1CCN(C(=O)C2CCN(S(=O)(=O)c3cccc4nonc34)CC2)CC1	active: 7.31 µM	–
CC(/C=N\NC(=O)c1ccc(C)nc1)=C\c1ccccc1	–	inactive: -13.9%
Cc1ccc(C(=O)C=CNNC(=O)c2ccccc2)cc1	inconclusive: 29.1 µM [inhibitor, single point]	–
CN1CCN(C(=O)Cn2c(-c3cccs3)cc3cc(Cl)ccc32)CC1	active: 23.1 µM	–
Cc1ccc(C(=O)Nc2ccc(S(=O)(=O)O)c3cc(S(=O)(=O)O)cc(S(=O)(=O)O)c23)cc1NC(=O)c1cccc(NC(=O)Nc2cccc(C(=O)Nc3cc(C(=O)Nc4ccc(S(=O)(=O)O)c5cc(S(=O)(=O)O)cc(S(=O)(=O)O)c45)ccc3C)c2)c1	inactive and inconclusive: 6.51 µM [inhibitor, single point]	–
COc1ccc(CCNS(=O)(=O)c2cccc([N+](=O)[O-])c2)cc1	–	inactive: 5.04%
COc1ccccc1CNc1nc2ccc(Cl)cc2n2cnnc12	–	inactive: -14.6%
CCC(NC(=O)c1cc(COc2cncc(Cl)c2)on1)c1ccc(C)cc1 (stereo not given)	inconclusive: 23.1 µM [inhibitor, single point]	–
C=CCSc1nnc2c(n1)-c1cccc3cccc-2c13	inconclusive: 29.1 µM [inhibitor, single point]	–
O=C(c1noc2c1CCCCC2)N1CCN(c2cccc(C(F)(F)F)c2)CC1	active: 16.4 µM	–
CCOc1ccc(N(CCC#N)S(=O)(=O)c2ccc(OC)cc2)cc1	inconclusive: 29.1 µM [inhibitor, single point]	–
CCOc1ccc(-c2cc3c(=O)n(Cc4nc(-c5ccc(OC(C)C)cc5)oc4C)ccn3n2)cc1Cl	–	inactive: 0.628%
Cc1cc(C)n2nc(C(=O)OCC(=O)c3c[nH]c4ccccc34)nc2n1	–	inactive: 8.7%
CCC(CC)C(=O)N(C)c1c(C)nc2c(OCC(=O)C(C)(C)C)cccn12	inconclusive: 9.2 µM [inhibitor, partial curve]	–
CN=C1S/C(=C\c2c(OC)cc(OC)cc2OC)C(=O)N1C	–	inactive: 4.09%
O=C(CCNC(=O)c1ccc(Cl)cc1)Nc1cccc(S(=O)(=O)N2CCCCC2)c1	active: 23.1 µM	–
CCOC(=O)c1sc(NC(=O)CCCCCN2C(=O)c3cccc4cccc(c34)C2=O)nc1C	inconclusive: 13 µM [inhibitor, partial curve]	–
CCOC(=O)C1CCN(CC(O)COc2ccc(C(C)(C)C)cc2)CC1 (stereo not given)	active: 16.4 µM	–
S=C(c1ccc(N2CCCC2)c(Br)c1)N1CCCCC1	active: 23.1 µM	–
COc1ccc(C2=C(SC)CC2=NC(C)(C)C)cc1	inconclusive: 20.6 µM [inhibitor, single point]	–
